Data as given in PubChem BioAssay (NCATS).
This list was built around the results that the source calls inconclusive (neither active nor inactive); the mix of calls is not that of the screen. For part of these data: No potency is given beside an inconclusive call; the fits are too rough. Active and inactive are the calls of the source. Unless noted, calls come from the whole dose curve; as a rule, active = well fitted curve in the direction sought with a large enough effect; inconclusive = small, poorly fitted or top-dose-only effect, or another doubt; inactive = no such curve, though single readings can be large; an effect the other way counts as inactive or inconclusive.

Assays:
[1] = molecular target: Dual specificity protein kinase CLK4 (Homo sapiens) (UniProt Q9HAZ1); test: qHTS Assay for Inhibitors of CDC-like Kinase 4 (Kinase-Glo Assay) (AID 1770); note: nearly all actives have a fitted effect of over 65% in size; note: potency is the fitted concentration of half-maximal effect
Sequence of UniProt Q9HAZ1 (Q9HAZ1 whole entry, looked up): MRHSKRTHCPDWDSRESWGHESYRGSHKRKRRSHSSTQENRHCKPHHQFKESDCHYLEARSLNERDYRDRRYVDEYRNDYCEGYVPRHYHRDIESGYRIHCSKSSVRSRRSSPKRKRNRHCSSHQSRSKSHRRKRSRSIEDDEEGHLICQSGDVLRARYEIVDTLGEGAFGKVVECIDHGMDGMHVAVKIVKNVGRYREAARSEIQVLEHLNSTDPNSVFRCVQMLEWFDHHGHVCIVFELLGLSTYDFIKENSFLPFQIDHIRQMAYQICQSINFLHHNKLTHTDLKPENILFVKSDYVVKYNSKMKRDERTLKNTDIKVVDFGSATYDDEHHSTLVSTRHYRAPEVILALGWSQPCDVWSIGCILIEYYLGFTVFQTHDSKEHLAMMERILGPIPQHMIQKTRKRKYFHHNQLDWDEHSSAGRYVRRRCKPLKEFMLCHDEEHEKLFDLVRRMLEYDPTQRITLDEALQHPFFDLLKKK
Method in brief: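 Readout: Kinase-Glo luminescence from ATP left after a 4.5 h room-temperature reaction of 25 nM Clk4 with 100 uM RS peptide and 1 uM ATP (final). Buffer: 25 mM Tris pH 7.5, 10 mM MgCl2.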

[2] = molecular target: Dual specificity protein kinase CLK4 (Homo sapiens) (UniProt Q9HAZ1); test: qHTS Assay for Inhibitors of CDC-like Kinase 4 (ADP-Glo Assay) (AID 1771); note: nearly all actives have a fitted effect of over 70% in size; note: potency is the fitted concentration of half-maximal effect
Method in brief: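 Compounds are pin-transferred onto substrate mix (100 uM RS peptide, 1 uM ATP), then 25 nM Clk4 is added. After 1 hr at room temperature, ADP-Glo reagent runs 45 min, detection reagent 30 min, then luminescence is read.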

[3] = Primary qHTS for small molecule stabilizers of the endoplasmic reticulum resident proteome: Secreted ER Calcium Modulated Protein (SERCaMP) assay (AID 1508630); conditions: SH-SY5Y GLuc-SERCaMP (Gaussia luciferase released on ER calcium loss) secretion, thapsigargin, luminescence; activity change, negative = inhibition: at 38.4 µM (top of the series) unless noted; note: potency is the fitted concentration of half-maximal effect; for activity change, negative = inhibition: % is set by controls: 0 for no effect and ±100 for the full control effect
Method in brief: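 The SH-SY5Y reporter protocol was run at 3 concentrations up to 38.3 uM (primary) or 11 concentrations (follow-up): 16 h compound, 100 nM thapsigargin for 4 h, then extracellular luciferase luminescence.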

[4] = molecular target: 3',5'-cyclic-AMP phosphodiesterase 4B (Homo sapiens) (UniProt Q07343); test: qHTS Assay for Inhibitors of PDE-IV (AID 607; active = well fitted activation curve with a large enough effect in the main read-out, with a control signal flat, not every such curve was filed as active; inconclusive = small, poorly fitted or top-dose-only effect, or effect the other way, or a change in a side signal; note: potency is the fitted concentration of half-maximal effect; for activation (PDE inhibition): % of control where 0% means no effect); conditions: HEK293 ACTOne CNG channel cells, membrane potential fluorescence; activation (PDE inhibition): at 22.9 µM (top of the series)
Sequence of UniProt Q07343 (Q07343 whole entry, looked up): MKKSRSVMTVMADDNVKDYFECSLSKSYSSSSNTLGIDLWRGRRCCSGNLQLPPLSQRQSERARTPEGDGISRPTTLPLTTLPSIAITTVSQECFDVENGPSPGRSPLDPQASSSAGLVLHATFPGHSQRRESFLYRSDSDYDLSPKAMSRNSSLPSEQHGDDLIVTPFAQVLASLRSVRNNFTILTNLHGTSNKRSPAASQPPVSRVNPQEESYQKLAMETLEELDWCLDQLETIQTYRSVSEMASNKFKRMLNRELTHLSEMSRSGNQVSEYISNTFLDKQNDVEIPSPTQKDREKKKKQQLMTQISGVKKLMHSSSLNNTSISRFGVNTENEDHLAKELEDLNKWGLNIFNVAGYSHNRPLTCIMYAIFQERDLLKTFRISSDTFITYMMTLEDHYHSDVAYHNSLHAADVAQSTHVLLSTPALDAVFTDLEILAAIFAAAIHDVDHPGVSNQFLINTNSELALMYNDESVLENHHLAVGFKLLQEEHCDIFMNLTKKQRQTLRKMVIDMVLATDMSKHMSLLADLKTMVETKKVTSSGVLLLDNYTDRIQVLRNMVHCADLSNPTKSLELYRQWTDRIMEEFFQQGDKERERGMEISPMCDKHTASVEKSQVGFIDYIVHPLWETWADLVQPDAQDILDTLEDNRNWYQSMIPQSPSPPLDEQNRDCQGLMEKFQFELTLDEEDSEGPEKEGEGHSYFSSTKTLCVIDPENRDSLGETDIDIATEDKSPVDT
Method in brief: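 The readout is membrane depolarisation from a cAMP-sensing CNG channel, detected with a potential dye at ex 535/em 590. Cells were HEK293-derived (endogenous PDE-IV) at 1000 cells/well, titrated up to 22.9 uM final.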

[5] = molecular target: Ubiquitin carboxyl-terminal hydrolase 1 (Homo sapiens) (UniProt O94782); test: Inhibitors of USP1/UAF1: Pilot qHTS (AID 504865);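 note: rhodamine fluorescence freed from ubiquitin-rhodamine substrate followed over time; potency is the fitted concentration of half-maximal effect; nearly all actives have a fitted effect of over 35% in size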
Sequence of UniProt O94782 (O94782 whole entry, looked up): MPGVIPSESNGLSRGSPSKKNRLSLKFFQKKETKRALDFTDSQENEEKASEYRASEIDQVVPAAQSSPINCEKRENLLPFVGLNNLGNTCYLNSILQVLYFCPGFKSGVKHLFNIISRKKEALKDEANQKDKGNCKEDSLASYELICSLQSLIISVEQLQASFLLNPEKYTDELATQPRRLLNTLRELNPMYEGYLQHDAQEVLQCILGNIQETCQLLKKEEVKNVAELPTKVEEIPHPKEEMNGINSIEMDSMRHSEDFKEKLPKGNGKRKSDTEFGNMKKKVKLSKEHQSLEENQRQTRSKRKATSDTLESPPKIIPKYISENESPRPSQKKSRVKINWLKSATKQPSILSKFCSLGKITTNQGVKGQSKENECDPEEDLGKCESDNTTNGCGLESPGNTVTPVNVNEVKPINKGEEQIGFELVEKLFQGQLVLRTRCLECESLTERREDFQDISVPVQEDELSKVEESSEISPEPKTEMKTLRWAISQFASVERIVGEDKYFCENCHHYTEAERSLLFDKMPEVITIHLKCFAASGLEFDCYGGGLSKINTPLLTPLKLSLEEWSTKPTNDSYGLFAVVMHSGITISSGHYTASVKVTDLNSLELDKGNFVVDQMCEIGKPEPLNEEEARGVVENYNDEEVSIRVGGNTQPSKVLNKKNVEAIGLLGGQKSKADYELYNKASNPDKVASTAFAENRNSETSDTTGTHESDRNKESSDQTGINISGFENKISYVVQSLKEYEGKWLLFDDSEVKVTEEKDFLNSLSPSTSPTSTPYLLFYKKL
Method in brief: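 1nM USP1/UAF1 + cpd, 15 min RT; start w/ Ub-Rho 150nM final; kinetic FL 480/540 nm, 6 reads q60 s. Buffer 50mM HEPES pH 7.8, 0.5mM EDTA, 1mM TCEP, 0.01% Tween-20, 0.1 mg/ml BSA.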

[6] = AP1 Signaling Pathway (AID 357; active = well fitted curve in either direction with a large enough effect, not every such curve was filed as active; inconclusive = small, poorly fitted or top-dose-only effect, or another doubt;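 note: ME-180 reporter cells stimulated with EGF at its EC50 level; top concentration of the series differs between compounds; % is set by controls: 0 for no effect and ±100 for the full control effect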); conditions: ME-180 AP-1-bla reporter, EGF-induced, beta-lactamase ratio, 5 h; at 7.69 µM (top of the series) unless noted
Method in brief: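 Titration-series screen for positive or negative modulators of EC50 EGF-induced signaling in ME-180 cells carrying an AP-1-driven beta-lactamase reporter. After 5 hours at 37 degrees Celsius, CCF4 460nm/530nm emission ratio gave %Activity; AC50 values derived.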

[7] = NFAT Signaling Pathway (AID 444; active = well fitted curve in either direction with a large enough effect, not every such curve was filed as active; inconclusive = small, poorly fitted or top-dose-only effect, or another doubt;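 note: carbachol stimulus at about its EC50 of 1 µM final; % is set by controls: 0 for no effect and ±100 for the full control effect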); conditions: Jurkat NFAT-bla M1, carbachol, beta-lactamase ratio, 5 h; at 7.69 µM (top of the series) unless noted
Method in brief: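 Jurkat cells carrying an NFAT-driven β-lactamase reporter and co-transfected muscarinic M1 receptor were treated with compound plus carbachol (1 uM final, an EC50 level) for 5 h at 37 °C. CCF4 loading followed for 1 h at RT; 460/530 nm ratio gave %activity.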

[8] = molecular target: Mitogen-activated protein kinase 10 (Mus musculus) (UniProt Q61831); test: JNK3 AlphaScreen Assay (AID 530; active = well fitted curve in either direction with a large enough effect, not every such curve was filed as active; inconclusive = small, poorly fitted or top-dose-only effect, or another doubt;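 note: kinase came from lysate of stimulated human HepG2 cells; signal reports phosphorylation of biotinylated GST-cJun 1-79 at Ser73 with 10 µM ATP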; note: potency is the fitted concentration of half-maximal effect; for activity change, negative = inhibition: % is set by controls: 0 for no effect and ±100 for the full control effect); conditions: JNK3 lysate, c-Jun phosphorylation; activity change, negative = inhibition: at 57.1 µM (top of the series)
Method in brief: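 Phosphorylation of biotinylated GST-cJun(1-79) at Ser73 is measured by AlphaScreen proximity luminescence. Enzyme is JNK3 in HepG2 lysates activated with interleukin-1beta and tumor necrosis factor alpha; ATP is 10 uM final.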

[9] = molecular target: Cytochrome P450 3A4 (Homo sapiens) (UniProt P08684); test: qHTS Assay for Inhibitors and Substrates of Cytochrome P450 3A4 (AID 884); conditions: recombinant CYP3A4, Luciferin-PPXE luminescence; activity change, negative = inhibition: at 57.1 µM (top of the series); note: potency is the fitted concentration of half-maximal effect; nearly all actives have a fitted effect of over 50% in size
Sequence of UniProt P08684 (P08684 whole entry, looked up): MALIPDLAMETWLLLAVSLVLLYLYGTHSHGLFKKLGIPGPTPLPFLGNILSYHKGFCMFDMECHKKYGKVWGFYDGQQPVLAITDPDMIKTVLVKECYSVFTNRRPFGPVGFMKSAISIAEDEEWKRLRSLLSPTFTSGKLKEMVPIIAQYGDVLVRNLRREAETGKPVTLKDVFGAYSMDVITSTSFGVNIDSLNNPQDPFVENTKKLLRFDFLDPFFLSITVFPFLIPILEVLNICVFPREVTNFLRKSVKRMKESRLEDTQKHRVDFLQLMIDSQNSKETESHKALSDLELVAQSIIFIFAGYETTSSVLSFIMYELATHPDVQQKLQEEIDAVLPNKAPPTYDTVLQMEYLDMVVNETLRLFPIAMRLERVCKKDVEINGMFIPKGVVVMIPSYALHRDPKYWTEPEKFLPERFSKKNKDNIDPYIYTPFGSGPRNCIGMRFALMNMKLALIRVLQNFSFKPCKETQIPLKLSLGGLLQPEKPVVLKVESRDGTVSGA
Method in brief: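 Luminescent readout of luciferin produced by CYP3A4 (20 nM) dealkylation of Luciferin-PPXE, 25 uM (its KM). NADPH-driven reaction ran 60 min at RT after 10 min compound preincubation; data scaled to 57 uM ketoconazole as 100% inhibition.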

[10] = molecular target: Dual specificity protein kinase CLK4 (Homo sapiens) (UniProt Q9HAZ1); test: qHTS Assay for Inhibitors of CDC-like Kinase 4 (ADP-FP Assay) (AID 1795);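 note: recombinant human CLK4 phosphorylating RS repeat peptide at 1 µM ATP; potency is the fitted concentration of half-maximal effect; nearly all actives have a fitted effect of over 60% in size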
Method in brief: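 FP readout: Orange Transcreener ADP2 tracer (4 nM) plus ADP antibody, read after 30 min at room temperature. Kinase step: 6.25 nM Clk4, 100 uM RS peptide, 1 uM ATP, pH 7.5, 1 h.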

[11] = qHTS Assay for Identification of Small Molecule Agonists for Hypoxia Response Element Signaling Pathway (AID 914; active = well fitted activation curve with a large enough effect in the signal ratio, with a control signal flat, not every such curve was filed as active; inconclusive = small, poorly fitted or top-dose-only effect, or effect the other way, or a change in a side signal; the % refers to the signal ratio; note: potency is the fitted concentration of half-maximal effect; for activation: top concentration of the series differs between compounds; % of control where 0% means no effect); conditions: ME-180 (cervical carcinoma) HRE-bla reporter, beta-lactamase ratio, CoCl2, 17 h; activation: hits give high values
Method in brief: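 Cells were plated overnight, pin-dosed with compound in a titration series, co-stimulated with EC50 CoCl2 and incubated 17 hours at 37 degrees Celsius. CCF4 substrate was then loaded, and AC50 values came from the 460nm/530nm ratio.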

[12] = molecular target: Cytochrome P450 2C9 (Homo sapiens) (UniProt P11712); test: qHTS Assay for Inhibitors and Substrates of Cytochrome P450 2C9 (AID 883); note: potency is the fitted concentration of half-maximal effect; nearly all actives have a fitted effect of over 60% in size
Sequence of UniProt P11712 (P11712 whole entry, looked up): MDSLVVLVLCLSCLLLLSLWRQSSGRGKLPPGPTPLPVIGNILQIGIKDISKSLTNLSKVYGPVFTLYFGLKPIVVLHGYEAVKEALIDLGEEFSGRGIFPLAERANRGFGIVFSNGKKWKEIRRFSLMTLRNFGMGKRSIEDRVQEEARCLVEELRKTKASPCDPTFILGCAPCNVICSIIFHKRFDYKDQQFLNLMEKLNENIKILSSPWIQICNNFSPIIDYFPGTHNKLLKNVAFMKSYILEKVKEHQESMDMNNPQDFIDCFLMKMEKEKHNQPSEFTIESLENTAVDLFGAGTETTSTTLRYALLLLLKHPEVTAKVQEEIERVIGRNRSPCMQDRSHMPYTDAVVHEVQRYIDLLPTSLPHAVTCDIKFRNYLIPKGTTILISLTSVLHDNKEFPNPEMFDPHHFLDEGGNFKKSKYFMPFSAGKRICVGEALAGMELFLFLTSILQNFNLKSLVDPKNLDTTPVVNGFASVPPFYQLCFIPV
Method in brief: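 CYP2C9 deoxyluciferin hydroxylation, 37C, 60 min with NADPH regeneration; 10nM enzyme, 100uM Luciferin-H (KM). Glo detection reagent stopped reaction; luminescence normalized to sulphaphenazole (57uM) full inhibition.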

[13] = molecular target: Cytochrome P450 2C19 (Homo sapiens) (UniProt P33261); test: qHTS Assay for Inhibitors and Substrates of Cytochrome P450 2C19 (AID 899); note: potency is the fitted concentration of half-maximal effect; nearly all actives have a fitted effect of over 60% in size
Sequence of UniProt P33261 (P33261 whole entry, looked up): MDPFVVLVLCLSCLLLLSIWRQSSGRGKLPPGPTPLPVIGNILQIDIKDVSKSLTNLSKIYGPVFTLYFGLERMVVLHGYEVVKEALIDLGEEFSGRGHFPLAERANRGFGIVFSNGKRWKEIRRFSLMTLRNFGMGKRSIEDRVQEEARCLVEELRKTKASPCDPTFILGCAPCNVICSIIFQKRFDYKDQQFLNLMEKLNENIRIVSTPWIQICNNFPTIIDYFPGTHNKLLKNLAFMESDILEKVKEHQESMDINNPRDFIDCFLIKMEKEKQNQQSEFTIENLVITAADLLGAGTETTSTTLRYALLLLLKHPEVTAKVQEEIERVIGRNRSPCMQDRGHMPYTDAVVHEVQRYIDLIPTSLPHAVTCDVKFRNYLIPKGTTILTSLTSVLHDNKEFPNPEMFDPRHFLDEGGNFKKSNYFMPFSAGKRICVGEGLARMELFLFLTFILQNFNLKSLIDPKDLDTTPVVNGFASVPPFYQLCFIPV
Method in brief: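 In 50mM KPO4, the reaction held 5nM enzyme and KM-level (10uM) Luciferin-H EGE; it ran 60 min at 37C after NADPH regeneration and a 10 min compound preincubation. Luminescence values were scaled to 57uM ketoconazole as complete inhibition.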
Tags give direction and shape of the fitted curve or compound fluorescence and quenching.

Structure (SMILES): CC(=O)NCCNc1nc(-c2cccc(NS(C)(=O)=O)c2)nc2ccccc12
- Potency [1]: inconclusive [falling, partial curve]
- Potency [2]: inconclusive [falling, partial curve]
- Potency [3]: inactive

Structure (SMILES): COc1cccc(-c2cncnc2Nc2ccc(F)cc2)c1
- Potency [4]: inconclusive [activator, partial curve]
- Potency [1]: inconclusive [falling, partial curve]
- Potency [2]: inconclusive [falling, single point]
- Potency [5]: inconclusive [inhibitor, partial curve, poor fit]
- Potency [3]: inactive

Structure (SMILES): COc1ccc(CNc2ncnc3ccc(-c4cccnc4)cc23)c(OC)c1
- activity change, negative = inhibition [6]: inconclusive: -32.8% [inhibitor]
- activity change, negative = inhibition [7]: inactive: 29.9%
- Potency [8]: inactive
- Potency [4]: inconclusive [activator, single point]
- Potency [9]: active: 1.26 µM
- Potency [1]: active: 14.1 µM
- Potency [10]: inconclusive [falling, full curve]
- Potency [3]: inactive

Structure (SMILES): CN(C)c1ncc2nc(CCc3ccccc3)c(=O)n(CCC#N)c2n1
- Potency [8]: inconclusive [activator, partial curve]
- Potency [4]: inconclusive [activator, single point]
- Potency [1]: inactive
- Potency [2]: inactive
- Potency [3]: inconclusive [inhibitor, single point]

Structure (SMILES): COc1ccc2[nH]cc(CCNc3nc(-c4ccccc4OC)nc4ccccc34)c2c1
- activity change, negative = inhibition [7]: inconclusive: -66% [inhibitor]
- Potency [1]: inconclusive [falling, single point]
- Potency [10]: inconclusive [falling, single point]
- Potency [3]: inconclusive [inhibitor, single point]

Structure (SMILES): Cc1nc2cnc(Nc3ccccc3)nc2n(C[C@H]2CCCO2)c1=O
- activity change, negative = inhibition [7]: inactive: 9.56%
- Potency [1]: inconclusive [falling, partial curve]
- Potency [10]: inconclusive [falling, partial curve]
- Potency [3]: inconclusive [inhibitor, single point]

Structure (SMILES): CN(C)c1ncc2ncc(=O)n(C[C@H]3CCCO3)c2n1
- activation [11]: inconclusive: -27.9%
- Potency [1]: inconclusive [falling, partial curve]
- Potency [2]: inconclusive [falling, partial curve]
- Potency [3]: inactive

Structure (SMILES): CS(=O)(=O)Nc1cccc(-c2nc(Nc3ccncc3)c3ccccc3n2)c1
- activity change, negative = inhibition [7]: inconclusive: -74.7% [inhibitor]
- Potency [4]: inconclusive [activator, partial curve]
- Potency [12]: inconclusive [inhibitor, partial curve, poor fit]
- Potency [9]: active: 3.98 µM
- Potency [13]: active: 5.01 µM
- Potency [1]: active: 12.6 µM
- Potency [10]: inconclusive [falling, partial curve]
- Potency [3]: inconclusive [inhibitor, single point]

Structure (SMILES): N#Cc1ccccc1-c1ccc2ncnc(NCc3cccs3)c2c1
- activity change, negative = inhibition [7]: inactive: 20.9%
- Potency [11]: inconclusive [inhibitor, partial curve]
- Potency [1]: inconclusive [falling, full curve]
- Potency [10]: inconclusive [falling, partial curve]
- Potency [3]: inconclusive [inhibitor, single point]

Structure (SMILES): COc1ccccc1-c1nc(NCCc2cnc[nH]2)c2ccccc2n1
- activity change, negative = inhibition [7]: inconclusive: -41.1% [inhibitor]
- Potency [4]: inactive
- Potency [1]: inconclusive [falling, single point]
- Potency [10]: inconclusive [falling, single point]
- Potency [3]: inconclusive [inhibitor, single point]

Structure (SMILES): COc1ccccc1-c1cc(NCc2ccccc2)ncn1
- activity change, negative = inhibition [7]: inactive: -5.25%
- Potency [8]: inactive
- Potency [4]: inconclusive [activator, single point]
- Potency [13]: active: 7.94 µM
- Potency [11]: inconclusive [activator, single point]
- Potency [1]: inconclusive [falling, single point]
- Potency [2]: inconclusive [falling, partial curve]
- Potency [5]: active: 22.4 µM
- Potency [3]: inactive

Structure (SMILES): CN1CCN(c2nc(-c3ccoc3)nc3ccccc23)CC1
- Potency [4]: inconclusive [activator, partial curve]
- Potency [1]: inconclusive [falling, partial curve]
- Potency [2]: inconclusive [falling, partial curve]
- Potency [3]: inconclusive [inhibitor, single point]

Structure (SMILES): COc1ccccc1CNc1nc(-c2ccc(C(=O)N(C)C)cc2)nc2ccccc12
- activity change, negative = inhibition [6]: inconclusive: -54.9% [inhibitor]
- Potency [4]: inconclusive [rising, partial curve]
- activation [11]: inactive: 25.3%
- Potency [1]: inconclusive [falling, single point]
- Potency [3]: inconclusive [inhibitor, single point]
